According to patent publication US20220288226A1 (ENOSI LIFE SCIENCES, published 2022):

Biological target: T1, extracellular domain of TNFR-1 (human, UniProt P19438 30-211)
T1 construct: The construct limits, tag, supplier and species are not restated there; also called TNFR1 extracellular domain; tumor necrosis factor receptor-1 (TNFR1)
T1 sequence: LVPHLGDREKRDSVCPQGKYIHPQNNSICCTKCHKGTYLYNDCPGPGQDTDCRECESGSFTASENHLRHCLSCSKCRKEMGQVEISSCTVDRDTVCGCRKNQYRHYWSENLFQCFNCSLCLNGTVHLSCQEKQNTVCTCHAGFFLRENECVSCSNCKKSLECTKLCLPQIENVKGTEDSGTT
Experiment: SPR (Biacore), Vhh on TNFR1 extracellular domain
Protocol: Each of Vhh 1-4 subsequently was tested in binding studies using the surface plasmon resonance (SPR) method (Sciences GL. Biacore Assay Handbook. General Electric Company (2012); and Richter et al. (2019) MAbs 11:166-177). Competition assays of Vhh inhibition of TNF-a binding to TNFR1 extracellular domain also were performed as described in Richter et al. (2019).

B1: Vhh-1 (VHH)
VHH: EVQLLESGGGLVQPGGSLRLSCAASGFTFDKYSMGWVRQAPGKGLEWVSQISDTADRTYYAH[left out - about 20 residues]MNSLRAEDTAVYYCAIYTGRWVPFEYWGQGTLVTVSS
notes: also called DOM1h-574-208; Recombinant human anti-TNFRSF1A single domain antibody
Kd: 0.43 nM
